Target: T1, GST (glutathione transferase)–Gemin2 (human, UniProt O14893 1-280)
T1 sequence: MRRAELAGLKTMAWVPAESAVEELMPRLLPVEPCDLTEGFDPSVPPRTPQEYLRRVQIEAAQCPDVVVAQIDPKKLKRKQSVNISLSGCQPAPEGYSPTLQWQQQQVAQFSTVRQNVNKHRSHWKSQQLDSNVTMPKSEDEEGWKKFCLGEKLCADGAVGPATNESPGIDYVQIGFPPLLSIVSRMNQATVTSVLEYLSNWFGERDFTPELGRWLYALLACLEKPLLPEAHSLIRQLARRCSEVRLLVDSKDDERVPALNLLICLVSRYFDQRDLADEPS
Experiment: pull-down

B1: full-length SMN D44V (natural protein)
chain: not shown
fold difference in binding from wild-type SMN: ≤ 2 fold | fold efficiency of binding, without detergent against with detergent: 3 fold

Reference: PMC3462613 (Biochemical Journal, 2012)
